Out of some 2,100 compounds screened, about 320 (15%) were called active. This list was built around the results that the source calls inconclusive (neither active nor inactive); the mix of calls is not that of the screen. Calls come from the whole dose curve; as a rule, active = well fitted cell-killing curve with a large enough effect; inconclusive = small, poorly fitted or top-dose-only effect, or effect the other way; inactive = flat fitted curve, though single readings scatter. Where the call is inconclusive, the potency comes from a doubtful curve fit.
Test: Viability Counterscreen for CMV-Luciferase Assay of Inhibitors of ATXN expression; note: nearly all actives have a fitted effect of over 55% in size
Conditions: HEK-293 CMV-luciferase cells viability, protease fluorescence, 24 h; activity change, negative = cytotoxicity: at the top concentration
Outline: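 HEK-293 cells stably expressing CMV-luciferase, treated 24 hr at 37 °C with compounds (several concentrations). Viability by Gly-Phe-AFC fluorescence (25 uM final, 30 min); reporter by SteadyGlo luminescence after 5 min.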
% is set by controls: 0 for no effect and ±100 for the full control effect; potency is the fitted concentration of half-maximal effect; tags give direction and shape of the fitted curve.

Structure (SMILES) | Potency | activity change, negative = cytotoxicity
COc1ccc(Cn2c(-c3ccc(C)cc3)c[n+]3ccccc23)cc1 | inconclusive: 2 µM [cytotoxic, partial curve] | 
O=c1c2ccccc2sc2c(CO)ccc(NCCN3CCCCC3)c12 | active: 25.1 µM | 
OC(c1ccccn1)(c1ccccn1)c1ccccn1 | inconclusive: 2 µM [cytotoxic, partial curve, poor fit] | 
COc1ccc(Cl)cc1NC(=O)Nc1cccc([N+](=O)[O-])c1C |  | inactive: 2.88%
CCCC(=O)Nc1ccc2nc(SCC(=O)N3CCCC3)sc2c1 |  | inactive: 10.3% [at 57.5 µM]
COc1ccc2nc(C)cc(Nc3ccc(N4CCOCC4)cc3)c2c1 | inconclusive: 39.8 µM [cytotoxic, single point] | 
O=C(NNC(=O)C12CC3CC(CC(C3)C1)C2)c1ccccn1 | inconclusive: 10 µM [cytotoxic, partial curve, poor fit] | 
O=S(=O)(c1ccc(F)cc1)c1snnc1-c1ccccc1 | active: 10 µM | 
Cc1ccc(C(=O)N/C(=C\c2ccc(-c3ccc(Cl)cc3)o2)C(=O)NCCCN(C)C)cc1 | inconclusive: 7.08 µM [cytotoxic, partial curve, poor fit] | 
C/C(=N\NC(=O)c1ccc(CN2CCc3ccccc3C2)cc1)c1ccccc1O |  | inactive: -23.2%
Cc1cc([N+](=O)[O-])nn1Cc1ccc(C(=O)N/N=C/c2ccc(O)cc2O)cc1 | inconclusive: 4.47 µM [cytotoxic, partial curve, poor fit] | 
COc1ccc(/C=C/C(=O)c2cc3cccc(OC)c3oc2=O)cc1 | inconclusive: 39.8 µM [cytotoxic, single point] | 
COc1cc(NC(=O)c2cccc3c(-c4cccnc4)coc23)cc(OC)c1OC | inconclusive: 3.55 µM [cytotoxic, single point] | 
N#C/C(=C\C=C\c1ccccc1[N+](=O)[O-])C(=O)NC1CCCCC1 | inconclusive: 7.94 µM [cytotoxic, full curve, poor fit] | 
O=C(N/N=C/c1cc(Br)cc(Br)c1O)c1ccncc1 | inconclusive: 39.8 µM [rising, single point] | 
CN(C)CCCN(C(=O)c1ccco1)c1nc2ccc(Br)cc2s1 | inconclusive: 22.4 µM [cytotoxic, partial curve, poor fit] | 
Cn1c(COc2ccc(Cl)cc2)nnc1SCc1ncc(-c2ccccc2)o1 |  | inactive: -18.9% [at 57.5 µM]
c1ccc(Cn2c(-c3ccccc3)c[n+]3c2SCCC3)cc1 |  | inactive: 6.56% [at 57.5 µM]
O=[N+]([O-])c1ccc(O)c2ncccc12 | active: 10 µM | 
O=C1N/C(=N/N=C/c2ccccc2O)SC1Cc1ccc(F)cc1 (stereo not given) | active: 14.1 µM | 
Cc1cc(C)c(O)c(CN(C)Cc2cc(Cl)cc(Cl)c2O)c1 | inconclusive: 17.8 µM [cytotoxic, single point] | 
Cc1cc(C)nc(/N=C(\N)Nc2ccc(OCc3ccccc3)cc2)n1 |  | inactive: -27.6% [at 57.5 µM]
Cc1cc2nc(-c3nnnn3Cc3ccccc3)c(=O)[nH]c2cc1C | inconclusive: 3.16 µM [rising, partial curve] | 
CCC(=O)NC(C)c1cc(Cl)c2cccnc2c1O (stereo not given) |  | inactive: -22%

Structure (SMILES) | Potency | activity change, negative = cytotoxicity
Cc1cc(O)c(C(C)C)cc1N=Cc1ccccc1[N+](=O)[O-] | inconclusive: 39.8 µM [rising, single point] | 
COc1ccc(C)cc1NC(=O)COC(=O)c1c(C)nn(-c2ccccc2)c1C |  | inactive: -23.2% [at 57.5 µM]
O=C(NCCc1cn2ccccc2n1)c1cc(COc2ccc3ncccc3c2)on1 | inconclusive: 31.6 µM [cytotoxic, single point] | 
CN(C)c1ccc(C(=O)N/N=C/c2cc(Br)cc(Br)c2O)cc1 |  | inactive: 5.98%
CC(Oc1ccc(Br)cc1)C(=O)Nc1nc(-c2ccccn2)cs1 (stereo not given) | inconclusive: 1.58 µM [cytotoxic, full curve] | 
C/C(=N\NC(=O)c1ccc(Cl)c(Cl)c1)c1ccccn1 | inconclusive: 0.316 µM [cytotoxic, full curve] | 
CC(C)(C)c1cc(C(=O)NN)n(Cc2ccc(Cl)cc2Cl)n1 | inconclusive: 17.8 µM [cytotoxic, partial curve, poor fit] | 
CCc1nn2cc(C(=O)c3cc(Cl)ccc3O)cnc2c1-c1ccc(F)cc1 | inconclusive: 28.2 µM [cytotoxic, single point] | 
NC(c1csc(Nc2ccc(C(F)(F)F)cn2)n1)C1CCCCC1 (stereo not given) | inconclusive: 25.1 µM [cytotoxic, single point] | 
CC(=O)Oc1ccc(N(C(C)=O)S(=O)(=O)c2cccs2)c2ccccc12 | inconclusive: 25.1 µM [cytotoxic, single point] | 
N#C/C(=C/c1ccc(Sc2nc3ccccc3[nH]2)o1)c1cccc(F)c1 |  | inactive: -26.5%
O=C(N/N=C/c1cc([N+](=O)[O-])ccc1O)c1cccc2cc[nH]c12 | active: 7.94 µM | 
Cc1c(C(=O)NCc2ccc(Cl)c(Cl)c2)sc(=O)n1Cc1ccc(S(C)(=O)=O)cc1 |  | inactive: -12.2%
CCCCCn1c(=N)n(CC(O)COc2ccccc2OC)c2ccccc21 (stereo not given) | active: 3.16 µM | 
COc1cc(-c2cnc3c(NC=O)cc(-c4cccc(C(F)(F)F)c4)cn23)cc(OC)c1OC | inconclusive: 7.94 µM [cytotoxic, full curve] | 
Cc1ccccc1Oc1cc(NC(=O)CCCn2nc(C)c([N+](=O)[O-])c2C)cc([N+](=O)[O-])c1 |  | inactive: -13%
Cc1cc(C)cc(C(=O)N(NC(=O)Nc2ccc(Cl)cc2)C(C)(C)C)c1 | inconclusive: 25.1 µM [cytotoxic, single point] | 
OC1CCCN(Cc2c3ccccc3cc3ccccc23)C1 (stereo not given) | inconclusive: 22.4 µM [cytotoxic, partial curve, poor fit] | 
CCCCOc1ccccc1NC(=O)c1scc2c1OCCO2 |  | inactive: -13.6%
Cn1nccc1C(=O)N1CCCC(C(=O)c2cccc3ccccc23)C1 (stereo not given) |  | inactive: -25.3% [at 57.5 µM]
CCOC(=O)c1c(-c2ccccc2)oc2cc(CN(C)C)c(O)c(CN(C)C)c12 | inconclusive: 4.47 µM [cytotoxic, full curve, poor fit] | 
COc1cccc(NC(=S)/C(=C(\[O-])c2cc(C)n(-c3ccccc3F)c2C)[n+]2ccc(N(C)C)cc2)c1 | inconclusive: 31.6 µM [cytotoxic, single point] | 
CCOC(=O)C(NS(=O)(=O)c1ccc(C)cc1)(C(F)(F)F)P(=O)(OCC(C)C)OCC(C)C (stereo not given) | inconclusive: 3.55 µM [cytotoxic, single point] | 
CCN1CCN(c2ccc(Cl)cc2NC(=O)c2ccc(-n3nc(C)cc3C)cc2)CC1 |  | inactive: -12.5% [at 57.5 µM]

Structure (SMILES) | Potency | activity change, negative = cytotoxicity
COc1ccc(C(CCNC(C)c2ccccc2)c2ccc(F)cc2)cc1 (stereo not given) | inconclusive: 25.1 µM [cytotoxic, partial curve, poor fit] | 
COc1ccc(/C=N/NC(=O)c2cccc([N+](=O)[O-])c2)c2ccccc12 | inconclusive: 7.08 µM [cytotoxic, single point] | 
COc1cccc(NC(=O)CSc2nc3ncc(Br)cc3[nH]2)c1 |  | inactive: 5.16%
CCCC(=O)NC(c1ccc(OC)cc1)c1ccc2cccnc2c1O (stereo not given) | inconclusive: 3.98 µM [cytotoxic, single point] | 
Cc1c(C(=O)Nc2nonc2-c2ccc(F)cc2)oc2ccc(F)cc12 | inconclusive: 20 µM [cytotoxic, single point] | 
CN(C)C(CNC(=O)c1cccc(S(=O)(=O)N2CCN(c3ccc(F)cc3)CC2)c1)c1ccccc1 (stereo not given) |  | inactive: -28.6% [at 57.5 µM]
O=C(Nc1ccc(N2CCN(C(=O)c3cccs3)CC2)c(Cl)c1)c1cccnc1 | inconclusive: 35.5 µM [cytotoxic, single point] | 
CCN(CC)S(=O)(=O)c1ccc(N/N=C/c2cc(OC)ccc2O)nc1 |  | inactive: -22.1%
COC(=O)c1cc(NC(=O)c2cc(-c3ccc(C(F)(F)F)cc3)oc2C(F)(F)F)ccc1N1CCOCC1 | inconclusive: 39.8 µM [cytotoxic, single point] | 
COc1ccc(C(=O)NC(=S)NNC(=O)c2cnccn2)cc1 | inconclusive: 2.82 µM [cytotoxic, partial curve] | 
O=[N+]([O-])c1cc(Cl)c(O)c2ncccc12 | active: 11.2 µM | 
CC1CC2(C)Oc3ccccc3CC2C(C)C1CNCCCN(C)C (stereo not given) | active: 35.5 µM | 
Nc1cc2c3c(cccc3c1)C(=O)N(CCN1CCCC1)C2=O | inconclusive: 20 µM [cytotoxic, single point] | 
O=C(CSc1nc2ncc(Cl)cc2[nH]1)Nc1cccc(F)c1 |  | inactive: -17.3% [at 57.5 µM]
CC(=O)Nc1cccc(-c2ccnc3c2CC(C)(C(=O)Nc2ccc(Cl)c(C(F)(F)F)c2)O3)c1 (stereo not given) | active: 28.2 µM | 
CC(=O)Nc1cc(-c2ccc(C(=O)NC3CC3)cc2)cn2c(-c3cccc(C(C)=O)c3)cnc12 | inconclusive: 39.8 µM [cytotoxic, single point] | 
CC(C)Nc1nc(NCCOc2ccccc2)c2sccc2n1 | inconclusive: 25.1 µM [cytotoxic, single point] | 
Cc1[nH]c2ccccc2c1SCc1nnc(SCc2ccc(Cl)cc2)n1C | inconclusive: 39.8 µM [cytotoxic, single point] | 
O=C(O)CCn1cc(/C=C/C(=O)c2ccc(Cl)cc2)c(-c2ccc(Br)cc2)n1 | inconclusive: 17.8 µM [cytotoxic, partial curve] | 
COc1cccc2c1C(=O)c1c(O)c3c(c(O)c1C2=O)C[C@](O)(C(C)=O)C[C@H]3O[C@@H]1C[C@@H](N)[C@@H](O)[C@@H](C)O1 | active: 0.891 µM | 
COc1ccc(CNC(=O)Nc2nc(C(N)Cc3ccc(C(F)(F)F)cc3)cs2)cc1 (stereo not given) | inconclusive: 25.1 µM [cytotoxic, partial curve, poor fit] | 
CN(CC(=O)Nc1ccc(Cl)cc1)C(=O)c1ccc(S(=O)(=O)Nc2ccccc2)cc1 | inconclusive: 17.8 µM [cytotoxic, partial curve, poor fit] | 

From PubChem BioAssay AID1745849 (National Center for Advancing Translational Sciences (NCATS), 2022)
